Assay results reported in the RNAGym collection of RNA variant scans (doi:10.1101/gad.245936.114).
Variants at the background level are over-represented here.

B1: tRNA (parent)
chain: CUCUCGGUAGCCAAGUUGGUUUAAGGCGCAAGACUUUAAUUUAUCACUACGAAAUCUUGAGAUCGGGCGUUCGACUCGCCCCCGGGAGAUUUUUUCCUCGAGCAA

Variants of: B1
Experiment: nonsense suppression (GFP-seq) (ratio to wild type); higher = more function; SUP4oc tRNA, yeast GFP reporter sort-seq
Outline: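 Each variant's nonsense suppression (GFPSEQ) is a cell-share-weighted bin median GFP/RFP relative to the unmutated parent tRNA. Yeast with genome-integrated tRNA variants from a ~3% random-mutation library, a galactose-driven GFP ochre reporter and RFP were grown in raffinose/galactose medium with 80 mg/L adenine, then sorted into GFP/RFP bins for Illumina sequencing. Variants needed ≥100 reads and ≥30 cells.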

Variant	nonsense suppression
G6C U21A C34U G78C	≤ 0.026
G6C U21G C27A G66U A87C	≤ 0.026
G6C U22G C82U	≤ 0.026
G6C U55A U58G G78C	≤ 0.026
G6C U57A	≤ 0.026
G6C U57C G73A G84U G88A A89C	≤ 0.026
G6C U57G C64A C83U	≤ 0.026
G6C U58A	≤ 0.026
G6C U58A C81U A89C	≤ 0.026
G6C U58G A60C	≤ 0.026
G6C U58G C80A	≤ 0.026
G6C U58G U63A	≤ 0.026
G6C U63C G65A	≤ 0.026
G6C U70C	≤ 0.026
G6C U71C G73A	≤ 0.026
G6U A9G G10C U58G A89G	≤ 0.026
G6U A9U A23C C82A	≤ 0.026
G6U A9U A33U G66U	≤ 0.026
G6U A9U C12A G86C	≤ 0.026
G6U A13G U20A G65C	≤ 0.026
G6U A13U G18C U20G	≤ 0.026
G6U A23C C29G G73C	≤ 0.026
G6U A23G U63A	≤ 0.026
G6U A23U C56U	≤ 0.026

Variant	nonsense suppression
G6U A23U G67C	≤ 0.026
G6U A23U G88C	≤ 0.026
G6U A23U U57G	≤ 0.026
G6U A30G C34G G66A	≤ 0.026
G6U A31G C64U C75G	≤ 0.026
G6U A33G	≤ 0.026
G6U A33G C34U	≤ 0.026
G6U A33G G85U	≤ 0.026
G6U A60G C81G	≤ 0.026
G6U A89C	≤ 0.026
G6U C11A C29A	≤ 0.026
G6U C11A C79U	≤ 0.026
G6U C11G C29G G61C	≤ 0.026
G6U C11G U55C	≤ 0.026
G6U C12A A33G G88A	≤ 0.026
G6U C12U A60G G84U	≤ 0.026
G6U C12U U76C C77G C79A	≤ 0.026
G6U C27A	≤ 0.026
G6U C27G A74U	≤ 0.026
G6U C27G G61C	≤ 0.026
G6U C27U G69U	≤ 0.026
G6U C29A U63C	≤ 0.026
G6U C34G G69U	≤ 0.026
G6U C34U C72A	≤ 0.026

Variant	nonsense suppression
G6U C56U G59C G65U	≤ 0.026
G6U C68G	≤ 0.026
G6U C68G G88A	≤ 0.026
G6U C68U	≤ 0.026
G6U C72A	≤ 0.026
G6U C72U	≤ 0.026
G6U C80U	≤ 0.026
G6U C81G	≤ 0.026
G6U C82A A87U	≤ 0.026
G6U C82U	≤ 0.026
G6U G7A A33G A89C	≤ 0.026
G6U G7A G61C U76C	≤ 0.026
G6U G7A U8A G85A	≤ 0.026
G6U G7C A33U	≤ 0.026
G6U G7C A74G	≤ 0.026
G6U G7C G28U U71C	≤ 0.026
G6U G7U U22G	≤ 0.026
G6U G10C A23C A60G U63A	≤ 0.026
G6U G10C G25C	≤ 0.026
G6U G10C U21A A30C G66A	≤ 0.026
G6U G10U A33G	≤ 0.026
G6U G10U A54U U57C G88A	≤ 0.026
G6U G10U G28A A33U U70C	≤ 0.026
G6U G15U C77G G78A	≤ 0.026

Variant	nonsense suppression
G6U G15U C82G	≤ 0.026
G6U G19A	≤ 0.026
G6U G19A A30U	≤ 0.026
G6U G19A U22G	≤ 0.026
G6U G19U C27A	≤ 0.026
G6U G25C G26A G61A	≤ 0.026
G6U G25U U57G	≤ 0.026
G6U G26A A89C	≤ 0.026
G6U G26C A33G U70G C77G	≤ 0.026
G6U G26C U70C A74U G88C	≤ 0.026
G6U G28C	≤ 0.026
G6U G32A C34G G61U U63A	≤ 0.026
G6U G61C C82U	≤ 0.026
G6U G66U U70A	≤ 0.026
G6U G69C G86U	≤ 0.026
G6U G84A G88C	≤ 0.026
G6U U8A C12G U17C C29U	≤ 0.026
G6U U8G	≤ 0.026
G6U U8G C77G A89C	≤ 0.026
G6U U16A A23G	≤ 0.026
G6U U16C U76A	≤ 0.026
G6U U16G A54U G86A A89G	≤ 0.026
G6U U17A U63C	≤ 0.026
G6U U17G A24U C29U C79G	≤ 0.026

Variant	nonsense suppression
G6U U17G C79U	≤ 0.026
G6U U20A	≤ 0.026
G6U U20C A30C C72A C75G C79G	≤ 0.026
G6U U20G C29A	≤ 0.026
G6U U21A A62C	≤ 0.026
G6U U21G	≤ 0.026
G6U U21G G85A G86C	≤ 0.026
G6U U22C U57C C77G	≤ 0.026
G6U U35G U71G	≤ 0.026
G6U U55C U70G C83A	≤ 0.026
G6U U57A	≤ 0.026
G6U U57G A60G G84U	≤ 0.026
G6U U57G G67U C72U	≤ 0.026
G6U U63C	≤ 0.026
G6U U76C	≤ 0.026
G7A A9C A54G	≤ 0.026
G7A A9G	≤ 0.026
G7A A9G C27U	≤ 0.026
G7A A9G C72A U76A G84A	≤ 0.026
G7A A9U G15A C34A	≤ 0.026
G7A A13C A14C U16G C34G A54C U55A U63C G84U	≤ 0.026
G7A A13G A74C G88A	≤ 0.026
G7A A14G G28U A30U U57G	≤ 0.026
G7A A23G C29U A87G	≤ 0.026

Variant	nonsense suppression
G7A A23G C75A	≤ 0.026
G7A A23U U35A G61U C79G G84U	≤ 0.026
G7A A24C	0.123
G7A A24C G69A	≤ 0.026
G7A A24C U55G G69U A87G	≤ 0.026
G7A A24U C75U G78C	≤ 0.026
G7A A31U U71C	≤ 0.026
G7A A33G	≤ 0.026
G7A A33U	≤ 0.026
G7A A33U G73U	≤ 0.026
G7A A54C G67U	≤ 0.026
G7A A60G	0.053
G7A A62C C72U	≤ 0.026
G7A C11U C56U	≤ 0.026
G7A C12U C64A C75A C83A	≤ 0.026
G7A C27U	≤ 0.026
G7A C29A	≤ 0.026
G7A C29A A33U	≤ 0.026
G7A C29A A62U	≤ 0.026
G7A C29G	≤ 0.026
G7A C34A	≤ 0.026
G7A C56A C79A C83G	≤ 0.026
G7A C75A	≤ 0.026
G7A C83G	≤ 0.026

Variant	nonsense suppression
G7A G10C G25U A89C	≤ 0.026
G7A G10C G73A	≤ 0.026
G7A G10U G61C G73C	≤ 0.026
G7A G10U U20A U35G U57G U63C	≤ 0.026
G7A G15U C34U G84C	≤ 0.026
G7A G15U G69C C79G	≤ 0.026
G7A G18U C34A G61U G65A C72U	≤ 0.026
G7A G19U	≤ 0.026
G7A G25A A33C A89U	≤ 0.026
G7A G25A U63C	≤ 0.026
G7A G25U U35C	≤ 0.026
G7A G26C G32U	≤ 0.026
G7A G26U C56A	≤ 0.026
G7A G28C U63C	≤ 0.026
G7A G32A	≤ 0.026
G7A G32A C75G	≤ 0.026
G7A G59A U71G G73A G84A G85U	≤ 0.026
G7A G59C	≤ 0.026
G7A G59U	≤ 0.026
G7A G61A	≤ 0.026
G7A G61A A87G	≤ 0.026
G7A G65U	≤ 0.026
G7A G66A A89G	≤ 0.026
